Laboratory results from the CheMixHub viscosity set.
“And” between values parts separate entries of the source, which are not always exact repeats. Equal entries are not always repeated. This continues a long series; more values of the same kind are listed elsewhere.

Experiment: xn = mol fraction of the nth substance listed

CN(CCO)CCO + O
Conditions	viscosity
293.15 K, 101 kPa, x1 = 0.061	3.712 mPa·s
298.15 K, 100 kPa, x1 = 0.131	9.32 mPa·s
298.15 K, 101 kPa, x1 = 0.061	3.136 mPa·s
298.15 K, 101.3 kPa, x1 = 0.036	1.941 mPa·s
298.15 K, 101.3 kPa, x1 = 0.061	3.092 mPa·s
298.15 K, 101.3 kPa, x1 = 0.092	5.253 mPa·s
298.15 K, 101.3 kPa, x1 = 0.13	9.208 mPa·s
298.15 K, 101.33 kPa, x1 = 0.0079	1.059 mPa·s
298.15 K, 101.33 kPa, x1 = 0.0176	1.301 mPa·s
298.15 K, 101.33 kPa, x1 = 0.0364	1.901 mPa·s
298.15 K, 101.33 kPa, x1 = 0.0612	3.057 mPa·s
298.15 K, 101.33 kPa, x1 = 0.0923	5.172 mPa·s
298.15 K, 101.33 kPa, x1 = 0.1322	9.172 mPa·s
298.15 K, 101.33 kPa, x1 = 0.1859	17.02 mPa·s
298.15 K, 101.33 kPa, x1 = 0.2526	32.11 mPa·s
298.15 K, 101.33 kPa, x1 = 0.3021	43.51 mPa·s
298.15 K, 101.33 kPa, x1 = 0.3658	56.06 mPa·s
298.15 K, 101.33 kPa, x1 = 0.5026	74.16 mPa·s
298.15 K, 101.33 kPa, x1 = 0.5653	81.05 mPa·s
298.15 K, 101.33 kPa, x1 = 0.696	82.37 mPa·s
298.15 K, 101.33 kPa, x1 = 0.8989	78.87 mPa·s
303.15 K, 101 kPa, x1 = 0.0501	2.174 mPa·s
303.15 K, 101 kPa, x1 = 0.061	2.673 mPa·s
303.15 K, 101 kPa, x1 = 0.1	4.904 mPa·s
303.15 K, 101 kPa, x1 = 0.1501	9.146 mPa·s
303.15 K, 101 kPa, x1 = 0.1992	14.78 mPa·s
303.15 K, 101 kPa, x1 = 0.2459	21.18 mPa·s
303.15 K, 101 kPa, x1 = 0.2961	29.08 mPa·s
303.15 K, 101 kPa, x1 = 0.3981	43.5 mPa·s
303.15 K, 101 kPa, x1 = 0.5001	53.57 mPa·s
303.15 K, 101 kPa, x1 = 0.5938	58.78 mPa·s
303.15 K, 101 kPa, x1 = 0.7022	61.01 mPa·s
303.15 K, 101 kPa, x1 = 0.7945	60.73 mPa·s
303.15 K, 101 kPa, x1 = 0.9015	59.34 mPa·s
303.15 K, 101.33 kPa, x1 = 0.036	1.699 mPa·s
303.15 K, 101.33 kPa, x1 = 0.061	2.622 mPa·s
303.15 K, 101.33 kPa, x1 = 0.092	4.389 mPa·s and 4.343 mPa·s
303.15 K, 101.33 kPa, x1 = 0.13	7.47 mPa·s
308.15 K, 101 kPa, x1 = 0.0501	1.886 mPa·s
308.15 K, 101 kPa, x1 = 0.061	2.301 mPa·s
308.15 K, 101 kPa, x1 = 0.1	4.094 mPa·s
308.15 K, 101 kPa, x1 = 0.1501	7.4 mPa·s
308.15 K, 101 kPa, x1 = 0.1992	11.68 mPa·s
308.15 K, 101 kPa, x1 = 0.2459	16.45 mPa·s
308.15 K, 101 kPa, x1 = 0.2961	22.24 mPa·s
308.15 K, 101 kPa, x1 = 0.3981	32.75 mPa·s
308.15 K, 101 kPa, x1 = 0.5001	40.13 mPa·s
308.15 K, 101 kPa, x1 = 0.5938	44.07 mPa·s
308.15 K, 101 kPa, x1 = 0.7022	46.03 mPa·s
308.15 K, 101 kPa, x1 = 0.7945	46.01 mPa·s
308.15 K, 101 kPa, x1 = 0.9015	45.26 mPa·s
313.15 K, 100 kPa, x1 = 0.131	5.19 mPa·s and 5.193 mPa·s
313.15 K, 101 kPa, x1 = 0.0501	1.651 mPa·s
313.15 K, 101 kPa, x1 = 0.061	1.995 mPa·s
313.15 K, 101 kPa, x1 = 0.1	3.455 mPa·s
313.15 K, 101 kPa, x1 = 0.1501	6.075 mPa·s
313.15 K, 101 kPa, x1 = 0.1992	9.391 mPa·s
313.15 K, 101 kPa, x1 = 0.2459	12.98 mPa·s
313.15 K, 101 kPa, x1 = 0.2961	17.28 mPa·s
313.15 K, 101 kPa, x1 = 0.3981	25.13 mPa·s
313.15 K, 101 kPa, x1 = 0.5001	30.65 mPa·s
313.15 K, 101 kPa, x1 = 0.5938	33.67 mPa·s
313.15 K, 101 kPa, x1 = 0.7022	35.26 mPa·s
313.15 K, 101 kPa, x1 = 0.7945	35.38 mPa·s
313.15 K, 101 kPa, x1 = 0.9015	34.96 mPa·s
313.15 K, 101.33 kPa, x1 = 0.0079	0.756 mPa·s
313.15 K, 101.33 kPa, x1 = 0.0176	0.902 mPa·s
313.15 K, 101.33 kPa, x1 = 0.036	1.316 mPa·s
313.15 K, 101.33 kPa, x1 = 0.0364	1.26 mPa·s
313.15 K, 101.33 kPa, x1 = 0.0612	1.893 mPa·s
313.15 K, 101.33 kPa, x1 = 0.092	3.13 mPa·s
313.15 K, 101.33 kPa, x1 = 0.0923	2.995 mPa·s
313.15 K, 101.33 kPa, x1 = 0.1322	5.219 mPa·s
313.15 K, 101.33 kPa, x1 = 0.1859	8.843 mPa·s
313.15 K, 101.33 kPa, x1 = 0.2526	14.32 mPa·s
313.15 K, 101.33 kPa, x1 = 0.3021	18.62 mPa·s
313.15 K, 101.33 kPa, x1 = 0.3658	23.58 mPa·s
313.15 K, 101.33 kPa, x1 = 0.5026	31.33 mPa·s
313.15 K, 101.33 kPa, x1 = 0.5653	33.63 mPa·s
313.15 K, 101.33 kPa, x1 = 0.696	35.36 mPa·s
313.15 K, 101.33 kPa, x1 = 0.8989	34.89 mPa·s
318.15 K, 101 kPa, x1 = 0.0501	1.458 mPa·s
318.15 K, 101 kPa, x1 = 0.1	2.955 mPa·s
318.15 K, 101 kPa, x1 = 0.1501	5.053 mPa·s
318.15 K, 101 kPa, x1 = 0.1992	7.624 mPa·s
318.15 K, 101 kPa, x1 = 0.2459	10.4 mPa·s
318.15 K, 101 kPa, x1 = 0.2961	13.72 mPa·s
318.15 K, 101 kPa, x1 = 0.3981	19.57 mPa·s
318.15 K, 101 kPa, x1 = 0.5001	23.77 mPa·s
318.15 K, 101 kPa, x1 = 0.5938	26.18 mPa·s
318.15 K, 101 kPa, x1 = 0.7022	27.45 mPa·s
318.15 K, 101 kPa, x1 = 0.7945	27.68 mPa·s
318.15 K, 101 kPa, x1 = 0.9015	27.44 mPa·s
323.15 K, 101 kPa, x1 = 0.0501	1.299 mPa·s
323.15 K, 101 kPa, x1 = 0.1	2.547 mPa·s
323.15 K, 101 kPa, x1 = 0.1501	4.251 mPa·s
323.15 K, 101 kPa, x1 = 0.1992	6.288 mPa·s
323.15 K, 101 kPa, x1 = 0.2459	8.455 mPa·s
323.15 K, 101 kPa, x1 = 0.2961	10.98 mPa·s
323.15 K, 101 kPa, x1 = 0.3981	15.49 mPa·s
323.15 K, 101 kPa, x1 = 0.5001	18.74 mPa·s
323.15 K, 101 kPa, x1 = 0.5938	20.63 mPa·s
323.15 K, 101 kPa, x1 = 0.7022	21.69 mPa·s
323.15 K, 101 kPa, x1 = 0.7945	21.93 mPa·s
323.15 K, 101 kPa, x1 = 0.9015	21.89 mPa·s
323.15 K, 101.33 kPa, x1 = 0.036	1.048 mPa·s
323.15 K, 101.33 kPa, x1 = 0.092	2.322 mPa·s and 2.313 mPa·s
323.15 K, 101.33 kPa, x1 = 0.13	3.606 mPa·s

O=S(=O)([O-])[O-].[O]=[V+2] + O
viscosity, 100 kPa
Conditions	293.15 K	298.15 K	303.15 K	308.15 K	313.15 K	318.15 K
x1 = 0.002247	–	–	–	–	0.7091 mPa·s	0.6471 mPa·s
x1 = 0.00448	1.189 mPa·s	–	0.943 mPa·s	0.8499 mPa·s	0.7702 mPa·s and 0.7702 mPa·s	0.7025 mPa·s and 0.7025 mPa·s
x1 = 0.006709	1.297 mPa·s	1.148 mPa·s	1.024 mPa·s	0.9205 mPa·s and 0.9205 mPa·s	0.8326 mPa·s and 0.8326 mPa·s	0.7572 mPa·s and 0.7572 mPa·s
x1 = 0.008924	1.418 mPa·s	1.252 mPa·s	1.115 mPa·s	1.001 mPa·s	0.9046 mPa·s	0.8211 mPa·s
x1 = 0.00893	–	–	–	1.001 mPa·s	0.9046 mPa·s	0.8211 mPa·s
x1 = 0.0111	–	–	–	1.085 mPa·s	0.978 mPa·s	0.8867 mPa·s
x1 = 0.01113	1.548 mPa·s	1.364 mPa·s	1.212 mPa·s	1.085 mPa·s	0.978 mPa·s	0.8867 mPa·s
x1 = 0.0133	–	–	–	1.182 mPa·s	1.063 mPa·s	0.9628 mPa·s
x1 = 0.01333	1.696 mPa·s	1.491 mPa·s	1.322 mPa·s	1.182 mPa·s	1.063 mPa·s	0.9628 mPa·s
x1 = 0.0155	–	–	–	1.284 mPa·s	1.153 mPa·s	1.041 mPa·s
x1 = 0.01552	1.854 mPa·s	1.627 mPa·s	1.44 mPa·s	1.284 mPa·s	1.153 mPa·s	1.041 mPa·s
x1 = 0.0177	2.031 mPa·s	1.777 mPa·s	1.57 mPa·s	1.396 mPa·s and 1.396 mPa·s	1.25 mPa·s and 1.25 mPa·s	1.127 mPa·s and 1.127 mPa·s
x1 = 0.01986	2.226 mPa·s	1.943 mPa·s	1.711 mPa·s	1.521 mPa·s and 1.52 mPa·s	1.36 mPa·s and 1.36 mPa·s	1.223 mPa·s and 1.223 mPa·s
x1 = 0.02202	2.436 mPa·s	2.121 mPa·s	–	–	–	–
x1 = 0.02418	2.662 mPa·s	2.312 mPa·s	2.027 mPa·s	1.792 mPa·s and 1.792 mPa·s	1.597 mPa·s and 1.597 mPa·s	1.431 mPa·s and 1.431 mPa·s
x1 = 0.02631	2.893 mPa·s	2.509 mPa·s	2.196 mPa·s	1.938 mPa·s and 1.938 mPa·s	1.725 mPa·s and 1.725 mPa·s	1.544 mPa·s and 1.544 mPa·s
x1 = 0.02846	3.178 mPa·s	2.736 mPa·s	2.388 mPa·s	2.092 mPa·s	1.848 mPa·s	1.642 mPa·s
x1 = 0.03056	3.499 mPa·s	3.004 mPa·s	2.617 mPa·s	2.291 mPa·s	2.022 mPa·s	1.795 mPa·s
